{"source": "paper PMC4336329", "about": "(PLoS ONE, 2015)", "note": "Screen size: about 310,000 compounds; about 2,200 (0.71%) showed an effect of 50% or more. Effects have a minus sign here. Some of the results follow."}
{"target": "human ether-à-go-go-related gene (hERG) potassium channel (human, UniProt Q12809)", "sequence (Q12809 whole entry, looked up)": "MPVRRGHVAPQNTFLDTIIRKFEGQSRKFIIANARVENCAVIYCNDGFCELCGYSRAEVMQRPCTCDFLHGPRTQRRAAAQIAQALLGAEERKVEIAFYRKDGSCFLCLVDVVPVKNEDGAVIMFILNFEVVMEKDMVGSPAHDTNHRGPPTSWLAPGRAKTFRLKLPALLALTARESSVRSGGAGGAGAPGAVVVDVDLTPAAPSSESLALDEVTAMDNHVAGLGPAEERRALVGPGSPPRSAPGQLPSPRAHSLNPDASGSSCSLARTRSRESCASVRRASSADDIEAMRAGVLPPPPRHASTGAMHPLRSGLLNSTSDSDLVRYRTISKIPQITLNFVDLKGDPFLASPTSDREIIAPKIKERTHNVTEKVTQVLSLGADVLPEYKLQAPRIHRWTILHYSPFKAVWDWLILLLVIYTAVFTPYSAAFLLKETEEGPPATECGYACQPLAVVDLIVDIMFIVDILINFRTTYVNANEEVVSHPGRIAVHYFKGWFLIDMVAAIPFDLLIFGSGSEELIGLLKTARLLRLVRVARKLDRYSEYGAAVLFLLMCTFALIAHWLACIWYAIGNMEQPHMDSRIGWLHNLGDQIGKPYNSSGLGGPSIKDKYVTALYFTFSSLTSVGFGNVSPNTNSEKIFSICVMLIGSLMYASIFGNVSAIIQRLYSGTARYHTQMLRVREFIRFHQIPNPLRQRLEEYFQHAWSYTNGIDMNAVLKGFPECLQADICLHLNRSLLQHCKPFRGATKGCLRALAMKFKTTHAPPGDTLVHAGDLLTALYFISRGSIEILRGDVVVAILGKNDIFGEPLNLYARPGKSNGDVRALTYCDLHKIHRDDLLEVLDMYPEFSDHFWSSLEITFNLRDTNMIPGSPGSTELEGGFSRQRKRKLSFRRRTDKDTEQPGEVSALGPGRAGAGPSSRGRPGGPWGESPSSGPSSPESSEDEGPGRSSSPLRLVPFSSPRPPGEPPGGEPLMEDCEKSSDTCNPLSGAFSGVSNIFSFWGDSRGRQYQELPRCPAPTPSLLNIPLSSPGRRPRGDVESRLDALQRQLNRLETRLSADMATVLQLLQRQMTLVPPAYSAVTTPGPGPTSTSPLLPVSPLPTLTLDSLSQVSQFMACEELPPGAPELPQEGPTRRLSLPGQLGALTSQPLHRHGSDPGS", "test": "primary screen, population patch clamp on CHO cells stably expressing hERG", "units": {"hERG current change (%, negative = inhibition) at 1uM": "%"}}
{"smiles": "CC(C)NC(=O)c1onc(CSc2ccc(F)cc2)c1C(=O)O", "hERG current change (%, negative = inhibition) at 1uM": 9.48}
{"smiles": "O=C(CN1C(=O)C2CC=CCC2C1=O)NC1CCCc2ccccc21", "note": "(centres unmarked)", "hERG current change (%, negative = inhibition) at 1uM": 10.8}
{"smiles": "O=S(=O)(Nc1ccc(-c2nc3cccnc3s2)cc1)c1cccs1", "hERG current change (%, negative = inhibition) at 1uM": 17}
{"smiles": "Cc1ccc(SCC(=O)OCC(=O)N2CCN(C(=O)c3ccco3)CC2)c(C)c1", "hERG current change (%, negative = inhibition) at 1uM": -1.4}
{"smiles": "Cc1cc(Br)ccc1NC(=O)c1ccco1", "hERG current change (%, negative = inhibition) at 1uM": 12.2}
{"smiles": "Cc1cccc(Cn2c(-c3ccc[nH]c3=O)nc3ccccc32)c1", "hERG current change (%, negative = inhibition) at 1uM": 9.51}
{"smiles": "CCOc1ccc(CN(C)C(=O)CNC(=O)c2ccc(Br)o2)cc1OC", "hERG current change (%, negative = inhibition) at 1uM": 8.7}
{"smiles": "CC(C)CC(c1nnnn1CCc1ccccc1)N1CCN(C(=O)c2ccco2)CC1", "note": "(centres unmarked)", "hERG current change (%, negative = inhibition) at 1uM": -10.5}
{"smiles": "COC(=O)CCCC1=CC2=CC(=O)C(C)(OC(=O)c3cccs3)C(=O)C2=CN1C1CCCCC1", "note": "(centres unmarked)", "hERG current change (%, negative = inhibition) at 1uM": 7.32}
{"smiles": "Cc1cccc(OC2(c3ccccc3)OC(=O)c3ccccc32)c1C", "note": "(centres unmarked)", "hERG current change (%, negative = inhibition) at 1uM": 2.92}
{"smiles": "CCO[C@@H]1OC(C(=O)Nc2ccccc2)=C[C@H](c2ccc(C(F)(F)F)cc2)[C@H]1CCCO", "hERG current change (%, negative = inhibition) at 1uM": 15.7}
{"smiles": "O=C(CCc1ccccc1)Nc1cccnc1Cl", "hERG current change (%, negative = inhibition) at 1uM": 16.1}
{"smiles": "CCC(C(=O)c1ccccc1)N(C(=O)c1ccccc1Cl)N1C(=O)C2C3C=CC(C3)C2C1=O", "note": "(centres unmarked)", "hERG current change (%, negative = inhibition) at 1uM": 4.35}
{"smiles": "Cc1ccnc(NS(=O)(=O)c2ccc(NS(=O)(=O)c3cccs3)cc2)n1", "hERG current change (%, negative = inhibition) at 1uM": 11.6}
{"smiles": "CCOC(=O)[C@]1(C#N)[C@@H]2C=CC(C(C)=O)=CN2[C@@H](C(N)=O)[C@@H]1c1ccsc1", "hERG current change (%, negative = inhibition) at 1uM": 11.3}
{"smiles": "CCOC(=O)[C@H]1[C@H]2COc3ccccc3[C@@H]2N2C(=O)[C@@H](CO)NC(=O)[C@@]12C", "hERG current change (%, negative = inhibition) at 1uM": 22.5}
{"smiles": "CC(=O)Oc1ccc(Cn2cnc3cc4ccccc4cc32)cc1", "hERG current change (%, negative = inhibition) at 1uM": -2.54}
{"smiles": "COc1ccc(CN(C)C(C)C(=O)Nc2ccc(S(=O)(=O)N3CCCCC3)cc2)cc1F", "note": "(centres unmarked)", "hERG current change (%, negative = inhibition) at 1uM": 5.25}
{"smiles": "O=[N+]([O-])c1ccc(NS(=O)(=O)c2cccc3cccnc23)cc1", "hERG current change (%, negative = inhibition) at 1uM": 16.3}
{"smiles": "COc1ccc(OC)c(C2=Nn3c(nnc3-c3ccco3)SC2)c1", "hERG current change (%, negative = inhibition) at 1uM": 8.21}
{"smiles": "CC(C)[C@H](NC(=O)c1cccc(CN(Cc2ccccc2)C(=O)/C=C/c2ccccc2)c1)C(=O)O", "hERG current change (%, negative = inhibition) at 1uM": 9.42}
{"smiles": "CCCNc1ncnc2onc(C)c12", "hERG current change (%, negative = inhibition) at 1uM": 16.1}
{"smiles": "CC(Cl)C(=O)NN=C(c1ccccc1)c1ccccc1", "note": "(centres unmarked)", "hERG current change (%, negative = inhibition) at 1uM": 9.19}
{"smiles": "CCC(=O)NC(=Nc1nc2ccccc2s1)NC(=O)CC", "hERG current change (%, negative = inhibition) at 1uM": 16.3}
{"smiles": "COc1ccc(N2CCN(C(=O)Cc3csc(NC(=O)Nc4ccccc4OC)n3)CC2)cc1", "hERG current change (%, negative = inhibition) at 1uM": 9.92}
{"smiles": "Cc1cccc(OCCCC(=O)Nc2ccc3c(c2)OCO3)c1", "hERG current change (%, negative = inhibition) at 1uM": -0.547}
{"smiles": "Cl.Nc1nc(N2CCN(c3ccccn3)CC2)nc2ccccc12", "hERG current change (%, negative = inhibition) at 1uM": -52.8}
{"smiles": "CSc1sc(C(=O)O)c(C)c1C(C)=O", "hERG current change (%, negative = inhibition) at 1uM": 15.7}
{"smiles": "Cc1c(NC(=O)c2ccc3c(c2)C(=O)N(CC2CCCO2)C3=O)cccc1C(=O)O", "note": "(centres unmarked)", "hERG current change (%, negative = inhibition) at 1uM": 18.5}
{"smiles": "O=C(NCc1ccc(F)cc1)C1CCN(S(=O)(=O)c2ccc3c(c2)OCCCO3)CC1", "hERG current change (%, negative = inhibition) at 1uM": -1.19}
{"smiles": "Cc1cccc(OCC(=O)Nc2ccccc2C(=O)N2CCOCC2)c1", "hERG current change (%, negative = inhibition) at 1uM": 9.23}
{"smiles": "CCOc1ccc(CN=C(N)N=C(N)N)cc1Cl.Cl", "hERG current change (%, negative = inhibition) at 1uM": -4.38}
{"smiles": "CC(=O)CCCCn1c(=O)c2c(ncn2C)n(C)c1=O", "hERG current change (%, negative = inhibition) at 1uM": 8.05}
{"smiles": "Cc1cccc(NC(=O)CN2CCN(C(=O)c3ccc(OCc4cn5ccccc5n4)cc3)CC2)c1C", "hERG current change (%, negative = inhibition) at 1uM": -14.5}
{"smiles": "Cc1ccc(/C=C2\\CCn3c2nc2cc(C(=O)O)ccc2c3=O)c(C)c1", "hERG current change (%, negative = inhibition) at 1uM": 13.2}
{"smiles": "CCN(CCn1cccn1)Cc1ccccc1OCC(O)CN1CCc2ccccc2C1", "note": "(centres unmarked)", "hERG current change (%, negative = inhibition) at 1uM": -3.69}
{"smiles": "O=C(Nc1ccc(Cl)cn1)C1CCCN1S(=O)(=O)c1ccc(Cl)cc1", "note": "(centres unmarked)", "hERG current change (%, negative = inhibition) at 1uM": -1.55}
{"smiles": "CC1CN(c2nc3ccccc3nc2C(C#N)C(=O)NCc2ccc3c(c2)OCO3)CC(C)O1", "note": "(centres unmarked)", "hERG current change (%, negative = inhibition) at 1uM": 13.5}
{"smiles": "CC(=O)Nc1cccc(C(=O)OCC(=O)NCc2ccc(F)cc2)c1", "hERG current change (%, negative = inhibition) at 1uM": 0.244}
{"smiles": "CCOC(=O)C1=NNC2C(=O)N(CC)C(=O)C12", "note": "(centres unmarked)", "hERG current change (%, negative = inhibition) at 1uM": 2.82}
{"smiles": "C/C(CC(=O)NC1CCCCC1)=N\\NC(=O)c1ccccc1C", "hERG current change (%, negative = inhibition) at 1uM": 12.2}
{"smiles": "COc1ccc(OCCC(=O)OCC(=O)c2ccc[nH]2)cc1", "hERG current change (%, negative = inhibition) at 1uM": 16.8}
{"smiles": "Cc1ccc(S(=O)(=O)Nc2cccc(C(=O)N3CCOCC3)c2)cc1", "hERG current change (%, negative = inhibition) at 1uM": 6.98}
{"smiles": "COc1cc(N/C=C(\\C(C)=O)c2ccccc2)cc(OC)c1", "hERG current change (%, negative = inhibition) at 1uM": 8.39}
{"smiles": "Cc1ccc2nc(C)cc(SCC(=O)N/N=C/c3ccco3)c2c1", "hERG current change (%, negative = inhibition) at 1uM": 6.8}
{"smiles": "CCNC(=S)Nc1ccc(Cl)c([N+](=O)[O-])c1", "hERG current change (%, negative = inhibition) at 1uM": -2.68}
{"smiles": "CC(=O)Nc1c2c(nn1-c1ccccc1C)CS(=O)C2", "note": "(centres unmarked)", "hERG current change (%, negative = inhibition) at 1uM": 9.69}
{"smiles": "O=C(CSc1nc2[nH]ncc2c(=O)[nH]1)N1CCCCC1", "hERG current change (%, negative = inhibition) at 1uM": 18.1}
{"smiles": "Cc1ccc2oc(-c3cccc(NC(=O)Cn4cnc5c(=O)n(C)c(=O)n(C)c54)c3)nc2c1", "hERG current change (%, negative = inhibition) at 1uM": 5.3}
{"smiles": "Cc1ccc2nc3c(cc(C(=O)NCCN4CCOCC4)c(=N)n3CCCN3CCOCC3)c(=O)n2c1", "hERG current change (%, negative = inhibition) at 1uM": 5.89}
{"smiles": "CC(C)(C)NC(=O)COC(=O)c1ccc(S(=O)(=O)N2CCCC2)cc1", "hERG current change (%, negative = inhibition) at 1uM": 3.36}
{"smiles": "O=C(COC(=O)c1ccc(F)cc1)NCCc1ccc(F)cc1", "hERG current change (%, negative = inhibition) at 1uM": 2.89}
{"smiles": "Cc1noc(C)c1S(=O)(=O)N1CCC(C(=O)O)CC1", "hERG current change (%, negative = inhibition) at 1uM": 4.03}
{"smiles": "N#CC1=C(N)SC(N)=C(C#N)C1c1ccoc1", "hERG current change (%, negative = inhibition) at 1uM": 2.57}
{"smiles": "Cc1ccc(S(=O)(=O)N/N=C/c2cccc(OC3CSC3)c2)cc1", "hERG current change (%, negative = inhibition) at 1uM": 0.22}
{"smiles": "CC1CCc2[nH]c3ccc(C(=O)N4CCCC(C(F)(F)F)C4)cc3c2C1", "note": "(centres unmarked)", "hERG current change (%, negative = inhibition) at 1uM": 21.6}
